Data reported in PubChem BioAssay AID588591 (National Center for Advancing Translational Sciences (NCATS), 2011).
The campaign covered roughly 390,000 compounds. About 4,700 (1.2%) were called active. Inconclusive results, whose numbers are uncertain, are shown with a selection of clear calls. Calls come from the whole dose curve; as a rule, active = well fitted inhibition curve with a large enough effect; inconclusive = small, poorly fitted or top-dose-only effect, or another doubt; inactive = no such curve, though single readings can be large or run the other way. Potencies beside an inconclusive call are fits to weak or partial responses and may not hold up.

These compounds were tested against DNA polymerase eta (Homo sapiens) (UniProt Q9Y253) (assay: qHTS for Inhibitors of Polymerase Eta). Conditions: recombinant Pol eta, fluorescent DNA replication assay; series mostly up to 114 µM; activity change, negative = inhibition: at the top concentration.
Sequence of UniProt Q9Y253 (Q9Y253 whole entry, looked up): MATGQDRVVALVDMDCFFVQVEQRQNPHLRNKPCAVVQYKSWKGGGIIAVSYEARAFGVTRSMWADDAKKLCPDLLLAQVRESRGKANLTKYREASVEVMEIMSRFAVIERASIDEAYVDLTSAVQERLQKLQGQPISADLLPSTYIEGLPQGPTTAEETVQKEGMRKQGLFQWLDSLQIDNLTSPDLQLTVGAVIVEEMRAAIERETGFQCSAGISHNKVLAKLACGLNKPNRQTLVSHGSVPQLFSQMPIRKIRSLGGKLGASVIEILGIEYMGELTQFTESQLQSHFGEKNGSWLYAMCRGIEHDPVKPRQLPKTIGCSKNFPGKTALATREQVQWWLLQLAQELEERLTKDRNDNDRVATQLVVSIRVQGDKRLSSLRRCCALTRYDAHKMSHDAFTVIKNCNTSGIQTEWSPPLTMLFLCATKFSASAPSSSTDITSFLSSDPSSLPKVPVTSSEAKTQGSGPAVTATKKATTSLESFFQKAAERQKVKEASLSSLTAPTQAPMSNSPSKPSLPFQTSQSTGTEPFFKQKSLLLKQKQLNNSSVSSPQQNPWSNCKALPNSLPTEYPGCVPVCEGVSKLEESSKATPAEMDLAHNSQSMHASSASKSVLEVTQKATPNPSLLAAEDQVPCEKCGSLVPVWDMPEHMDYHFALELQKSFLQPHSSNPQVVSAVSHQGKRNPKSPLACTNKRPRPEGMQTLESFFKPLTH
In short: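 Pol eta (10 nM) was preincubated with compounds for 15 min at room temperature, after which fluorescent replication substrate (50 nM final) was added to start the reaction. Fluorescence was read kinetically at 0 and 10 min.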
% is set by controls: 0 for no effect and ±100 for the full control effect; potency is the fitted concentration of half-maximal effect; tags give direction and shape of the fitted curve.

SMILES | activity change, negative = inhibition | Potency
O=C(O)c1ccc(/C=N/O)cc1 | inactive: -19.5% | –
O=C(NCc1ccccc1)c1c[nH]c2ccc(S(=O)(=O)Nc3ccc4c(c3)OCCO4)cc2c1=O | – | inconclusive: 20 µM [inhibitor, partial curve]
O=C(CN1CCN(c2ccccc2F)CC1)c1ccc(O)c(O)c1 | – | inconclusive: 25.1 µM [inhibitor, partial curve, poor fit]
N#CCOC(=O)[C@H](Cc1c[nH]c2ccccc12)NS(=O)(=O)c1ccc(Cl)cc1 | – | inconclusive: 35.5 µM [inhibitor, partial curve, poor fit]
COc1ccc(OC)c(/C=N/Nc2nncn2/N=C/c2cc(OC)ccc2OC)c1 | – | inconclusive: 14.1 µM [inhibitor, full curve, poor fit]
COC(=O)c1[nH]c(=O)c2ccccc2c1O | inactive: -22.2% | –
CC(C)NC(=O)CC(=O)N/N=C/c1ccc(F)cc1 | inactive: -13.7% | –
[O-]/C(=C(\C(=S)NCc1ccccc1)[n+]1ccccc1)c1ccc(Cl)s1 | – | inconclusive: 79.4 µM [inhibitor, partial curve, poor fit]
O=C(CNC(=O)c1cccc(OC(F)F)c1)OCc1cc(=O)n2cc(Br)ccc2n1 | – | inconclusive: 11.2 µM [inhibitor, full curve]
O=C(O)COc1ccccc1/C=C1\SC(=O)N(Cc2ccc(F)cc2)C1=O | – | inconclusive: 28.2 µM [inhibitor, partial curve, poor fit]
CC(=O)N1CCc2cc(Br)cc(S(=O)(=O)N3CCCCC3)c21 | inactive: -21.4% | –
COc1cc(OC)c2cc(C(=O)N/N=C/c3cccc(OC)c3O)[nH]c2c1 | – | inconclusive: 56.2 µM [inhibitor, full curve, poor fit]
COc1ccc2[nH]c(=O)c(CN(Cc3nnnn3Cc3ccco3)C3CCCCC3)cc2c1 | inactive: -8.29% | –
COc1cc(C(=O)OCC(=O)N(CC(C)C)C2CCS(=O)(=O)C2)cc(OC)c1C (centres undefined) | – | inconclusive: 56.2 µM [inhibitor, partial curve, poor fit]
CC(C)COc1ccc(C(=O)NCc2ccco2)cc1 | – | inconclusive: 22.4 µM [inhibitor, single point]
Cc1c(NC(=O)Nc2ccccc2C(F)(F)F)sc2nc3n(c(=O)c12)CCC(C)CC3 (centres undefined) | inactive: -5.01% | –
O=C1OC(c2cccs2)=N/C1=C\c1ccc(-c2ccccc2Cl)o1 | inactive: -29.6% | –
CCOC(=O)c1c(NC(=O)C2=C(C)NC(=S)NC2c2ccc(F)cc2)sc(C)c1C (centres undefined) | inactive: -7.12% | –
CCN(C(=O)COC(=O)/C=C/c1ccc(O)c(OC)c1)C1CCS(=O)(=O)C1 (centres undefined) | – | inconclusive: 35.5 µM [inhibitor, partial curve, poor fit]
CCOC(=O)c1c(NC(=O)CSc2nnc(-c3ccco3)o2)sc(C(C)=O)c1C | – | inconclusive: 0.794 µM [inhibitor, partial curve, poor fit]
CCCCN(CC)CCCNC(=O)Nc1sc2nc3n(c(=O)c2c1C)CCC(C)CC3 (centres undefined) | inactive: -15.9% | –
COc1cccc(CNC(=O)c2cc3c(=O)oc4ccc(C)cc4c3s2)c1 | inactive: -29.6% | –

SMILES | activity change, negative = inhibition | Potency
O=C(O)c1cccc(N2C(=O)/C(=C/c3ccc(SCc4ccc(Cl)cc4)o3)SC2=S)c1 | – | active: 7.94 µM
COc1ccc(-n2c(N)c(C#N)c3ccc([N+](=O)[O-])cc3c2=O)cc1 | – | inconclusive: 28.2 µM [inhibitor, partial curve, poor fit]
Cc1cc(C(=O)N/N=C2\CC(=O)c3ccccc32)c(C)n1-c1ccc(F)cc1 | – | inconclusive: 39.8 µM [inhibitor, partial curve]
O=C(COc1ccccc1C(=O)NCC1CCCO1)Nc1ccc(Cl)cc1Cl (centres undefined) | – | inconclusive: 17.8 µM [inhibitor, partial curve, poor fit]
O=C(Nc1ccc(-c2ccc(N3CCCCC3)nn2)cc1)c1ccco1 | – | inconclusive: 17.8 µM [inhibitor, partial curve, poor fit]
CN(C)Cc1c(O)ccc2c1O/C(=C\C=C\c1ccccc1)C2=O | inactive: -11.8% | –
Cc1nnc(SCC(=O)Nc2ccc(S(=O)(=O)N3CCCCC3)cc2)s1 | inactive: -9.11% | –
Cc1ccc([N+](=O)[O-])cc1N(CC(=O)N1CCCCC1)S(C)(=O)=O | inactive: 0.146% | –
CC(/C=C/C1(O)C(C)CC(=O)CC1(C)C)OC1OC(CO)C(O)C(O)C1O (centres undefined) | – | active: 31.6 µM
Cn1c2ccccc2c(=O)c2c(=O)n(C3CCCCCC3)c(C3CCCCC3)nc21 | – | inconclusive: 7.94 µM [inhibitor, full curve]
CCOC(=O)C1=C(C)OC2(O)c3ccccc3C(=O)C12O (centres undefined) | – | active: 39.8 µM
Cc1cccc(NC(=O)c2cc(-c3ccco3)nc3ccccc23)n1 | inactive: -17.2% | –
CCCC1=Nc2cc(C(=O)NCCc3ccccc3)ccc2Sc2ccc(C)cc21 | – | inconclusive: 79.4 µM [inhibitor, partial curve, poor fit]
O=C(N/N=C/c1cccn1-c1ccc([N+](=O)[O-])cc1)c1cccnc1 | – | inconclusive: 50.1 µM [inhibitor, partial curve, poor fit]
O=C(O)CC/C(=C\c1ccc(N2CCCC2)c([N+](=O)[O-])c1)c1nc2ccccc2s1 | – | active: 56.2 µM
Cn1c(/C=C/c2ccc([N+](=O)[O-])o2)nc2ccccc2c1=O | – | inconclusive: 15.8 µM [inhibitor, full curve, poor fit]
CC(=O)c1c(C)[nH]c(C(=O)OCC(=O)Nc2sc3c(c2C#N)CCCC3)c1C | – | inconclusive: 17.8 µM [inhibitor, partial curve]
COc1cc(C(=O)N2CCc3c([nH]c4ccccc34)C2c2ccc(C)cc2)cc(OC)c1OC (centres undefined) | inactive: -10.1% | –
O=C(O)c1cc(C(=O)O)cc(N2C(=O)CSC2=S)c1 | – | inconclusive: 20 µM [inhibitor, partial curve, poor fit]
Cc1cc(C)cc(N=C2NC(=O)/C(=C/c3cccs3)S2)c1 | inactive: -9.44% | –
CCOc1ccc(-c2nc(N)nc(C)c2-c2ccc(Cl)cc2)c(O)c1 | – | inconclusive: 39.8 µM [inhibitor, partial curve, poor fit]
NC(=O)c1c(NC(=O)Cn2nc(C(=O)O)c3ccccc3c2=O)sc2c1CCC2 | – | inconclusive: 56.2 µM [inhibitor, partial curve, poor fit]

SMILES | activity change, negative = inhibition | Potency
Cc1ccc(-c2nnc3c4ccccc4c(C)nn23)cc1NC(=O)c1ccccc1Cl | inactive: -23.8% | –
CCOCCCN(C(=O)Cn1nnc2ccccc21)C(C(=O)NCc1ccco1)c1ccncc1 (centres undefined) | – | inconclusive: 31.6 µM [inhibitor, single point]
CCOc1ccc(NC(=O)c2[nH]c(C)c(C(C)=O)c2C)cc1 | – | inconclusive: 39.8 µM [inhibitor, single point]
CC(C)=C1SC(N2CCN(c3ccc(C)c(Cl)c3)CC2)=NC1=O | – | inconclusive: 12.6 µM [inhibitor, full curve, poor fit]
O=C(COC(=O)C1CC(=O)N(Cc2ccco2)C1)c1ccc(OC(=O)c2ccco2)cc1 (centres undefined) | – | active: 3.16 µM
O=C(C1=NN[C@@H]2C(=O)N(c3cccc(C(F)(F)F)c3)C(=O)[C@H]12)C(c1ccccc1)c1ccccc1 | – | inconclusive: 56.2 µM [inhibitor, partial curve, poor fit]
CC(C)c1ccc(/C=N/NC(=O)c2cc(-c3cccc([N+](=O)[O-])c3)n[nH]2)cc1 | – | inconclusive: 44.7 µM [inhibitor, partial curve, poor fit]
COc1ccc(NC(=O)CSCC(=O)NCc2cccc(C(F)(F)F)c2)cc1 | – | inconclusive: 89.1 µM [inhibitor, partial curve, poor fit]
CN(Cc1c(F)cccc1Cl)C(=O)c1cccc(S(=O)(=O)NCc2ccccc2)c1 | – | inconclusive: 100 µM [inhibitor, partial curve, poor fit]
Cc1ccc(S(=O)(=O)N(C)C)cc1NC(=S)NCCCn1ccnc1 | – | inconclusive: 89.1 µM [inhibitor, partial curve, poor fit]
CC(=O)c1ccc(NC(=O)c2ccc(-n3cncn3)c([N+](=O)[O-])c2)cc1 | – | inconclusive: 79.4 µM [inhibitor, partial curve, poor fit]
CC(C)C(NC(=O)c1ccccc1Br)c1ccccc1 (centres undefined) | inactive: -1.21% | –
O=C(O)c1ccc(Cl)c(S(=O)(=O)Nc2ccc3[nH]c(=O)[nH]c3c2)c1 | – | inconclusive: 14.1 µM [inhibitor, full curve, poor fit]
CC(=O)Nc1ccc(NC(=O)COC(=O)c2c3c(nc4ccccc24)CCN(Cc2ccccc2)C3)cc1 | – | inconclusive: 8.91 µM [inhibitor, partial curve, poor fit]
COc1cc(OC)c2c(O)c3c(c(-c4c5c(c(O)c6c(OC)cc(OC)cc46)CO[C@@H](C)[C@H]5O)c2c1)[C@H](O)[C@H](C)OC3 | – | active: 20 µM
CCN(c1ccccc1)S(=O)(=O)c1ccc(C(=O)N(CCCN(C)C)c2nc3cc4c(cc3s2)OCO4)cc1 | – | inconclusive: 79.4 µM [inhibitor, partial curve, poor fit]
Oc1ccc(Br)cc1-c1cc(-c2ccco2)[nH]n1 | – | inconclusive: 25.1 µM [inhibitor, partial curve, poor fit]
COCCOc1ccc(C(F)(F)F)cc1NC(=O)Cc1ccc(S(=O)(=O)N2CCOCC2)s1 | – | inconclusive: 44.7 µM [inhibitor, partial curve, poor fit]
CCOC(=O)C(C)Oc1ccc(NC(=O)C(Cl)Cl)cc1 (centres undefined) | inactive: -5.89% | –
Nc1c(C(=O)NC2CC2)c2nc3ccccc3nc2n1-c1ccc2c(c1)OCO2 | – | inconclusive: 20 µM [inhibitor, partial curve, poor fit]
